Each structure is given as a SMILES string. Screen size: about 110,000 compounds; about 230 (0.21%) showed an effect of 50% or more. The list shows a part of the results.
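Further: 30 min substrate incubation versus DMSO and 10 µM JCP410 controls.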

DPAP1, sequence (Q8IIJ9 whole entry, looked up): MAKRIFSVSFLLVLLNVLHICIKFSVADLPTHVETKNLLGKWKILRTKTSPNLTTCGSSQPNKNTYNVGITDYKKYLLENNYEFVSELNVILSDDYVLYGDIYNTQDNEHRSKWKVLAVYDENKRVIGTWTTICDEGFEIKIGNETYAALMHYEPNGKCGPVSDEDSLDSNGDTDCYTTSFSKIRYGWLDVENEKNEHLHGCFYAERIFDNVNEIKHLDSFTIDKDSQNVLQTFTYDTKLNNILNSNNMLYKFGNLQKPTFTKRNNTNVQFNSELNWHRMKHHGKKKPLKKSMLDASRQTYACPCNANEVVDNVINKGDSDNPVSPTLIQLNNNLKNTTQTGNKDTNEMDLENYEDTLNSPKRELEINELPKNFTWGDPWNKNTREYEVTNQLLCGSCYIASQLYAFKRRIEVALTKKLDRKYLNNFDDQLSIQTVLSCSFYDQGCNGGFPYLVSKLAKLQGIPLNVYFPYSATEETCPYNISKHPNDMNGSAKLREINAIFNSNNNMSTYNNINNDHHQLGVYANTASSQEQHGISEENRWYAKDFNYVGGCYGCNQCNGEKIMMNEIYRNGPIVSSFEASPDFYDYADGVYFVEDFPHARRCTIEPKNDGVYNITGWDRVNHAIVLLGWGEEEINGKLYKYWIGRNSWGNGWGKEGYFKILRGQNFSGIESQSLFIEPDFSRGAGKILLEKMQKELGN

This experiment concerns the target DPAP1 (Plasmodium falciparum, UniProt Q8IIJ9). As to the kind of experiment: primary screen, percent inhibition; read by cleavage of a fluorogenic dipeptide substrate; higher = more effect of the substance. Further details: species or system P. falciparum D10 trophozoite lysates; single well.
For `COc1ccccc1CNC(=O)c1cc(S(=O)(=O)N2CCOCC2)ccc1F`, the “% Inhibition @ 10 uM” value was -3.78%. For the compound `Cc1ccc2nc(NC(=O)c3nc(SC(C)C)ncc3Cl)sc2c1`, the “% Inhibition @ 10 uM” value was 2.41%. Under `COCc1cc(C)nc(SCc2nc(O)c3ccccc3n2)c1C#N` stands 4.58%.

For `COc1ccc(S(=O)(=O)N(C)CC(=O)NCC2CCCO2)cc1` (stereo not drawn), the “% Inhibition @ 10 uM” value is reported as -3.53%.

For the compound `O=C(Nc1ccncc1)c1cc(-c2ccc(Cl)s2)nc2ccccc12`, the “% Inhibition @ 10 uM” value is reported as -0.68%.

For `COc1ccccc1OCCCC(=O)Nc1ccccc1C(C)C`, the “% Inhibition @ 10 uM” value is reported as -3.92%. Under `O=C(NCc1ccccn1)c1nnc(-c2cccnc2)o1` stands 3%; under `Cc1ccc(NS(=O)(=O)c2ccccc2)nc1`, -2.81%; under `Fc1cccc(Cl)c1CN1CCN(c2ccccc2)CC1`, 1.08%. The value for `O=C(c1ccc(CS(=O)(=O)c2ccc(Br)cc2)o1)N1CCN(c2ccccn2)CC1` was -1.28%. Under `O=C(CN1C(=O)C2C3c4ccccc4C(c4ccccc43)C2C1=O)Nc1cccc(Cl)c1` (stereo not drawn) stands 2.08%; under `Cc1cccn2c(=O)c3cc(C(=O)NC(C)c4ccccc4)n(C)c3nc12` (stereo not drawn), -1.56%. Regarding `CC1Cc2nc(SCC(=O)N3CCOCC3)n(CCc3ccccc3)c(=O)c2S1` (stereo not drawn), the “% Inhibition @ 10 uM” value is 4.23%.

As to `Cn1c2c(c(=O)n(C)c1=O)C(NC(=O)COc1ccccc1)(C(F)(F)F)C(=O)N2` (stereo not drawn), the “% Inhibition @ 10 uM” value is 0.189%. The value for `CCC(=O)N1c2ccccc2N=C2CC(C)(C)CC(O)=C2C1c1ccc(OC)c(OC)c1` (stereo not drawn) was 2.69%; that for `Cc1nnc(NC(=O)CSc2nnc(CNC(=O)COc3ccc(Cl)cc3)o2)s1` was -5.27%; that for `O=C(Nc1ccc(C(=O)N2CCOCC2)cc1)c1cnn2c(C(F)F)cc(-c3ccccc3)nc12` was 0.35%. Turning to `COc1ccc(-c2nnc(SCc3csc(C)n3)o2)cc1OC`, the “% Inhibition @ 10 uM” value turned out to be 1.84%. For the compound `Cc1csc2nc(=O)c3c4c(sc3n12)CCCC4`, the “% Inhibition @ 10 uM” value was found to be 5.63%. Regarding `O=C(COc1ccc(Cl)cc1Cl)Nc1ccccc1C(F)(F)F`, the “% Inhibition @ 10 uM” value is on record as -2.6%.

`CCCCC12CN3CC(C)(CN(C1)C3c1ccccc1Cl)C2=O` (stereo not drawn): the “% Inhibition @ 10 uM” value was 0.00706%. Under `Cc1cccc(OCCCCc2c(C)n[nH]c2C)c1` stands -0.351%; under `CCC(C)NC(=O)Cc1c(C)nc2cc(-c3ccccc3)nn2c1C` (stereo not drawn), 0.953%.

Take `CCS(=O)(=O)c1ncc(Cl)c(C(=O)Nc2nnc(SCc3ccccc3Cl)s2)n1`: the “% Inhibition @ 10 uM” value was found to be 1.99%. As for `O=C(Nc1ccc(S(=O)(=O)N2CCc3ccccc32)cc1)c1ccc(F)cc1`, the “% Inhibition @ 10 uM” value is reported as -2.8%. The value for `Cc1ccccc1NS(=O)(=O)c1ccc(Cl)c(C(F)(F)F)c1` was 0.583%; that for `O=C(CCSCCC(=O)Nc1ccc(F)c(F)c1)Nc1ccc(F)c(F)c1` was -1.12%; that for `CC1CCN(S(=O)(=O)c2ccc3nc(O)oc3c2)CC1` was -3.68%.

`O=C(CSCCc1ccccn1)Nc1cccnc1`: the “% Inhibition @ 10 uM” value is recorded as 6.5%.

For `Cn1ncc2c(N3CCN(Cc4ccccc4)CC3)ncnc21`, the “% Inhibition @ 10 uM” value is listed as 8.36%. Take `O=C(NCCCNC1=NS(=O)(=O)c2ccccc21)c1ccc(S(=O)(=O)N2CCOCC2)cc1`: the “% Inhibition @ 10 uM” value is given as -2.98%.

Regarding `CSc1cccc(NC2CCN(CCc3ccccc3)CC2)c1`, the “% Inhibition @ 10 uM” value was -1.15%.

For the compound `CC(C)(Cc1nc2ccccc2[nH]1)C(=O)O`, the “% Inhibition @ 10 uM” value is -2.91%.

As to `O=C(O)C1CC=CCC1C(=O)Nc1ccccc1C(F)(F)F` (stereo not drawn), the “% Inhibition @ 10 uM” value was determined as 4.64%. `CN(C)CCSc1nc(O)c(-c2ccccc2)c(O)n1`: the “% Inhibition @ 10 uM” value was -1.82%.

As to `COc1ccccc1C(=O)NCCN1CCCC1`, the “% Inhibition @ 10 uM” value was -2.05%.

Turning to `COc1ccc(/C=C2\S/C(=N/c3cccc(C(=O)O)c3)N(C)C2=O)cc1Br`, the “% Inhibition @ 10 uM” value stood at 6.35%.

`CN1C(=O)c2ccccc2C(C(=O)NCc2ccc(F)cc2)C1c1c[nH]c2ccccc12` (stereo not drawn): the “% Inhibition @ 10 uM” value stood at 0.559%. The value for `CCCOc1ccc(C2C(C(=O)OCC)=CN(Cc3ccc(F)cc3)C=C2C(=O)OCC)cc1OC` was -3.23%; that for `Cc1cc(C)nc(N2N=C(CSc3nnc(C)s3)CC2=O)n1` was 3.93%; that for `CCN(CC)S(=O)(=O)c1ccc(NC(=O)COc2ccc3ccccc3c2Br)cc1` was -0.413%. Under `CCn1cc(/C=C2\SC(=O)N(CC(=O)Nc3ccc4c(c3)OCO4)C2=O)c2ccccc21` stands 0.931%. Turning to `NC(=O)C1CCN(Cc2ccccc2Cl)CC1`, the “% Inhibition @ 10 uM” value is recorded as -7.02%. The value for `Cc1ccc(N2C(=O)CC(NC3CCCCCCC3)C2=O)cc1` (stereo not drawn) was -7.61%.

For `O=C(NCCc1ccc(Cl)cc1)c1cnc(N2CCCC2)nc1`, the “% Inhibition @ 10 uM” value is 0.44%. The value for `O=C(c1ccc(Cn2cc(Cl)cn2)cc1)N1N=C(C(F)F)CC1(O)C(F)F` (stereo not drawn) was -3.77%; that for `COc1ccc(C2Nc3ccc4ncccc4c3C3=C2C(=O)CCC3)cc1OC` (stereo not drawn) was 0.673%. Under `O=C(O)c1cccc2c1NC(C1CC=CCC1)C1CC=CC21` (stereo not drawn) stands 18.8%. Regarding `CCOC(=O)c1cnc2c(-c3ccccc3)c(C)nn2c1C`, the “% Inhibition @ 10 uM” value is on record as -7.39%. Consider `CC(=O)N(C)c1ccc(NC(=O)C(c2ccccc2)c2ccccc2)cc1`, for which the “% Inhibition @ 10 uM” value was 0.528%. Under `CC(=O)c1c(C(C)=O)c(C)n(-c2nc(-c3cccs3)c(C)s2)c1C` stands 2.46%.

For the origin of these results see article PMC6919601, “Identification of Plasmodium dipeptidyl aminopeptidase allosteric inhibitors by high throughput screening” (PLoS ONE, 2019).
